Measured values as given in paper PMC6175577, “BRCT domains of the DNA damage checkpoint proteins TOPBP1/Rad4 display distinct specificities for phosphopeptide ligands” (eLife, 2018).
Substitutions are numbered along the chain they refer to. These are yes or no findings as the source states them, for the method shown. In cells and extracts the contact can be indirect. Some entries that bind do so weakly or less than the wild type.

Sequences of proteins named here, by UniProt entry; tags and fusion partners are left off. Residues count along the entry.
UniProt Q92547, residues 1-360: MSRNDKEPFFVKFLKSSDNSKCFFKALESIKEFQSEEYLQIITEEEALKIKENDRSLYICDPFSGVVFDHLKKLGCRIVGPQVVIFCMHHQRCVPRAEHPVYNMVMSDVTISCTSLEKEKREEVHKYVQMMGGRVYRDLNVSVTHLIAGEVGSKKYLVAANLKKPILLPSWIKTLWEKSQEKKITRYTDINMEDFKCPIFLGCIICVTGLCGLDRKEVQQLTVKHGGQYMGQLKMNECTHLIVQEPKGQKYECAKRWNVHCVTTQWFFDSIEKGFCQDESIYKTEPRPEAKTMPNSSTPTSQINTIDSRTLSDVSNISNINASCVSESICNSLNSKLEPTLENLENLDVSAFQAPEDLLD

Assays:
Assay in all cases: pull-down; biotinylated RAD9 peptides saturating streptavidin agarose; 35S-methionine-labelled TOPBP1 1-360 in vitro translated in rabbit reticulocyte lysate; 20 mM HEPES 8.0, 450 mM NaCl, 0.01% Triton, 5% glycerol, 5 mM MgCl2, 5 mM 2-mercaptoethanol; 2 hr at 4°C; SDS PAGE and autoradiography; semi-quantitative; only the target purified
[1] = molecular target: T1, Biotinylated HsRAD9 pS387 peptide F-4 (human)
T1 sequence (peptide, phosphoserine at 387; biotin (position not stated)): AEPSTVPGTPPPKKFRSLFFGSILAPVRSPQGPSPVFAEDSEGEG

[2] = molecular target: T2, Biotinylated HsRAD9 pS387 peptide I-4 (human)
T2 sequence (peptide, phosphoserine at 387; biotin (position not stated)): T1 sequence (peptide, phosphoserine at 387; biotin (position not stated)) with F37I

[3] = molecular target: T3, Biotinylated HsRAD9 pS387 peptide K-1 (human)
T3 sequence (peptide, phosphoserine at 387; biotin (position not stated)): T1 sequence (peptide, phosphoserine at 387; biotin (position not stated)) with F37L, D40K

[4] = molecular target: T4, Biotinylated HsRAD9 pS387 peptide L-1 (human)
T4 sequence (peptide, phosphoserine at 387; biotin (position not stated)): T1 sequence (peptide, phosphoserine at 387; biotin (position not stated)) with F37L, D40L

[5] = molecular target: T5, Biotinylated HsRAD9 pS387 peptide Q-5 (human)
T5 sequence (peptide, phosphoserine at 387; biotin (position not stated)): T1 sequence (peptide, phosphoserine at 387; biotin (position not stated)) with V36Q, F37L

[6] = molecular target: T6, Biotinylated HsRAD9 pS387 peptide S-1 (human)
T6 sequence (peptide, phosphoserine at 387; biotin (position not stated)): T1 sequence (peptide, phosphoserine at 387; biotin (position not stated)) with F37L, D40S

[7] = molecular target: T7, Biotinylated HsRAD9 pS387 peptide S-5 (human)
T7 sequence (peptide, phosphoserine at 387; biotin (position not stated)): T1 sequence (peptide, phosphoserine at 387; biotin (position not stated)) with V36S, F37L

[8] = molecular target: T8, Biotinylated HsRAD9 pS387 peptide V-3 (human)
T8 sequence (peptide, phosphoserine at 387; biotin (position not stated)): T1 sequence (peptide, phosphoserine at 387; biotin (position not stated)) with F37L, A38V

[9] = molecular target: T9, Biotinylated HsRAD9 peptide pS387 (C-terminal 45 residues, 347-391) (human)
T9 sequence (peptide, phosphoserine at 387; biotin (position not stated)): T1 sequence (peptide, phosphoserine at 387; biotin (position not stated)) with F37L

N-Myc6-TEV2-hTOPBP1-1-360 (from UniProt Q92547 1-360) (domain or fragment)
binding [1]: binds
binding [2]: binds
binding [3]: no binding
binding [4]: no binding
binding [5]: binds
binding [6]: binds
binding [7]: binds
binding [8]: binds
binding [9]: binds
